Reference: PubChem BioAssay AID504332 (National Center for Advancing Translational Sciences (NCATS), 2011)
In all, about 350,000 compounds went through this assay and about 31,000 (8.9%) were called active. Inconclusive results, whose numbers are uncertain, are shown with a selection of clear calls. The call rests on the fitted dose curve; in most records, active means well fitted inhibition curve with a large enough effect; inconclusive means small, poorly fitted or top-dose-only effect; inactive means no such curve, though single readings can be large or run the other way. Potencies of inconclusive entries are doubtful fits and often do not repeat.

Target: Histone-lysine N-methyltransferase EHMT2 (Homo sapiens) (UniProt Q96KQ7)
Sequence of UniProt Q96KQ7 (Q96KQ7 whole entry, looked up): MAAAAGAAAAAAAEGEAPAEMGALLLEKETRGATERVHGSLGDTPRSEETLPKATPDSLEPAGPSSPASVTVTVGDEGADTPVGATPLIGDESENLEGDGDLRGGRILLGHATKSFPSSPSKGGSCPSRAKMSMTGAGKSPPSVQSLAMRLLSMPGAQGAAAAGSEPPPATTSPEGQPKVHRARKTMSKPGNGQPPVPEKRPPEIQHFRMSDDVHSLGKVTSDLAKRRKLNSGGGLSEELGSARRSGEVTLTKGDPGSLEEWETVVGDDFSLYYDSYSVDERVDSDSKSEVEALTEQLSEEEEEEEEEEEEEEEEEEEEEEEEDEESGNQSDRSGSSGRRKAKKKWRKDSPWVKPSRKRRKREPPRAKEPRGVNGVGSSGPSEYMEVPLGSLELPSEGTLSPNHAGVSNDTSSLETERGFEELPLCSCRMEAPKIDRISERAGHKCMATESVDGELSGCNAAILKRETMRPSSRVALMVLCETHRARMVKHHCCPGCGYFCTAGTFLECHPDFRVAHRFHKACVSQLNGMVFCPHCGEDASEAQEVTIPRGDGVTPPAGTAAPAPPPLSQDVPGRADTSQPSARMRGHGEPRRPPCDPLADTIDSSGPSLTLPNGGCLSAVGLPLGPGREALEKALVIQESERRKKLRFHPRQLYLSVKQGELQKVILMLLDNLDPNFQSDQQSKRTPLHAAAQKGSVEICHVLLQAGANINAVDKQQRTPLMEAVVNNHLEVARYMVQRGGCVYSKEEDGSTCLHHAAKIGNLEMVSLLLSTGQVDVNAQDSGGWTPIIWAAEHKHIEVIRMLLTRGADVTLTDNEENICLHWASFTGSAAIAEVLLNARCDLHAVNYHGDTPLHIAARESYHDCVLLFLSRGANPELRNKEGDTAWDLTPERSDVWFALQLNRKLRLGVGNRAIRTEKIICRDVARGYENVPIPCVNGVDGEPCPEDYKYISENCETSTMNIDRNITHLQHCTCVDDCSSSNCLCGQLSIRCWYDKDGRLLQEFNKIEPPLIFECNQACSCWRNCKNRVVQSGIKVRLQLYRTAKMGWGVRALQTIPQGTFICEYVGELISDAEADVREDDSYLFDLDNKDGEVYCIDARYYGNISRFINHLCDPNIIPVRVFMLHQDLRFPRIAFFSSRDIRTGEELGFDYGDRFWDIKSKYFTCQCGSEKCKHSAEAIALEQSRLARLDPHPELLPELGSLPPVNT
Assay: qHTS Assay for Inhibitors of Histone Lysine Methyltransferase G9a; further: nearly all actives have a fitted effect of over 75% in size
Conditions: G9a H3K9 monomethylation, AlphaScreen, 2 h; activity, negative = inhibition: at 59 µM (top of the series) unless noted
Procedure, shortened: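 Compounds were preincubated with 20 nM G9a for 15 min, after which biotinylated H3K9 peptide (500 nM) and SAM (20 uM) started a 2 h room-temperature reaction. Monomethylated product was quantified by antibody-based AlphaScreen chemiluminescence.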
On the % scale 0 is the no-effect control and ±100 the full control effect; potency means the concentration at half of the fitted maximal effect; tags describe the fitted curve by direction and shape.

Row | Structure (SMILES) | activity, negative = inhibition | Potency
1 | O=C(Nc1ccccc1)N1CCCC2(CCN(C(=O)c3ccco3)CC2)C1 | inactive: 9.12% [at 12.7 µM] | 
2 | COc1ccc(N2CCN(C(=O)[C@@H](NC(=O)c3ccccc3Cl)C(C)C)CC2)cc1 |  | inconclusive: 89.1 µM [inhibitor, single point]
3 | CCc1ccc(CNC(=O)C2COc3ccccc3C2)cc1 (stereo not given) |  | inactive
4 | NC(=O)CC(NC(=O)c1ccc(Br)cc1)c1ccc(N2CCN(c3ccc(F)cc3)CC2)c([N+](=O)[O-])c1 (stereo not given) | inactive: -30.3% [at 12.7 µM] | 
5 | S=c1nc(-c2cc(Cl)ccc2Cl)[nH][nH]1 |  | active: 1.58 µM
6 | CCCCNc1cc(Cl)nc(N)n1 |  | inactive
7 | Cc1ccc(/C=C/C(=O)Nc2nccs2)o1 |  | inconclusive: 39.8 µM [inhibitor, single point]
8 | CC(C(=O)Nc1sc2c(c1C(=O)NCc1ccco1)CCCC2)N1C(=O)c2ccccc2C1=O (stereo not given) |  | inconclusive: 89.1 µM [inhibitor, partial curve, poor fit]
9 | N#C/C(C(=O)NCc1ccco1)=C1/SC(Cc2ccc(Cl)cc2)C(=O)N1c1ccccc1 (stereo not given) |  | inactive
10 | O=C(CN1C(=O)NC2(CCCC2)C1=O)Nc1cc(S(=O)(=O)N2CCOCC2)ccc1OCC(F)(F)F |  | inconclusive: 0.631 µM [inhibitor, full curve, poor fit]
11 | Cc1nc2ccc(-c3nc4ccc(N)cc4[nH]3)cc2[nH]1 |  | inconclusive: 79.4 µM [inhibitor, partial curve, poor fit]
12 | COc1ccc(NCc2ccc3c(c2)OCO3)cc1Cl |  | inconclusive: 22.4 µM [inhibitor, single point]
13 | CC1CCCC(NC(=O)COC(=O)c2ccc3ccccc3n2)C1C (stereo not given) |  | inconclusive: 0.891 µM [inhibitor, full curve, poor fit]
14 | C/C(=C\C(=O)c1ccccc1)Nc1ccc(N2CCOCC2)cc1 |  | active: 79.4 µM
15 | COc1ccc2nc(-n3c(O)c(C4=c5ccccc5=NC4=O)[nH]c3=S)sc2c1 |  | inconclusive: 22.4 µM [inhibitor, single point]
16 | CC1(C)CC(N=Cc2c(O)n(Cc3ccc4c(c3)OCO4)c(=O)c3ccccc23)CC(C)(C)N1 |  | inconclusive: 50.1 µM [inhibitor, partial curve]
17 | COc1cc(NC(=O)c2ccc(N3CC4CC(C3)c3cccc(=O)n3C4)c(NC(=O)c3ccncc3)c2)cc(OC)c1OC (stereo not given) |  | inconclusive: 89.1 µM [inhibitor, single point]
18 | CCOc1ccc(C2CC(=O)Nc3c2c(=O)[nH]c2ncnn32)cc1 (stereo not given) |  | inconclusive: 31.6 µM [inhibitor, partial curve, poor fit]
19 | COc1ccc(NC(=O)CSCc2cc(=O)c3cc(Cl)ccc3[nH]2)cc1 |  | inactive
20 | Cc1ccc[n+](/C(=C\C(=C=[N-])C#N)C(=O)c2ccc(Cl)cc2)c1 |  | inconclusive: 89.1 µM [inhibitor, single point]
21 | CC(=O)c1cccc(NCC(=O)N2CCN(S(=O)(=O)c3ccccc3)CC2)c1 |  | inconclusive: 25.1 µM [inhibitor, single point]
22 | O=C(O)CSc1c2ccccc2cc2ccccc12 |  | inactive
23 | CCOC(=O)c1cc(S(=O)(=O)N2CCN(c3ccccc3OC)CC2)[nH]n1 |  | active: 28.2 µM
24 | CC(/C=N/Nc1nc2ccccc2[nH]1)=C\c1ccccc1 |  | inconclusive: 56.2 µM [inhibitor, partial curve, poor fit]

Row | Structure (SMILES) | activity, negative = inhibition | Potency
25 | COc1ccc(NC(=O)C(C)N2Cc3ccccc3C2=O)cc1OC (stereo not given) |  | inactive
26 | O=C(O)c1ccc(OCCCOc2ccc(C(=O)O)cc2)cc1 | inactive: -41.3% [at 2.33 µM] | 
27 | CCOc1ccc(C(=O)COC(=O)c2cccc(-n3cnnn3)c2)cc1 |  | inactive
28 | COc1ccccc1CNC(=O)c1ccc2c(c1)nc(C)n2-c1cccc(C)c1 |  | inactive
29 | COc1ccc(N2CCN(c3ccc(N4C(=O)COCC4=O)cc3[N+](=O)[O-])CC2)cc1 |  | active: 50.1 µM
30 | CCOc1ccc(CNC(=O)c2cccc(NC(=O)C3=C(C)OCCS3)c2)cc1 |  | inconclusive: 44.7 µM [inhibitor, partial curve]
31 | CCOC(=O)C1C(=O)C=C(C)C(C(=O)OCC)C1c1cccc([N+](=O)[O-])c1 (stereo not given) |  | inconclusive: 89.1 µM [inhibitor, single point]
32 | CCOC(=O)CNC(=O)c1cnn2cccnc12 |  | inconclusive: 89.1 µM [inhibitor, partial curve, poor fit]
33 | Cc1ccc2c(c1)-c1c(cnc3cc(-c4ccc(Cl)cc4)nn13)CO2 |  | inactive
34 | CCOC(=O)C1=C(CSc2nc3c(cc2C#N)CN(C)CC3)OC(N)=C(C#N)C1c1ccncc1 (stereo not given) |  | inconclusive: 39.8 µM [inhibitor, single point]
35 | Cc1ccc(C(=O)C2CCN(CC(=O)Nc3ccc(N(C)C)cc3)CC2)cc1 |  | active: 39.8 µM
36 | O=C(CNC(=O)c1ccccc1O)N/N=C/c1cc(Br)ccc1OC(=O)/C=C/c1ccco1 |  | inactive
37 | CCOC(=O)C1CCCN(c2oc(-c3ccc(OC)cc3)nc2C#N)C1 (stereo not given) |  | active: 50.1 µM
38 | O=C(NCc1ccco1)C(Cc1ccccc1)N1C(=O)C2C3C=CC(C3)C2C1=O (stereo not given) | inconclusive: -65.3% [inhibitor] | 
39 | COC(=O)COc1ccc(/C=C2/NC(=O)N(CC(=O)OC)C2=O)cc1 |  | inactive
40 | Cc1nnc(SC(C)C(=O)Nc2sc3c(c2C#N)CCCC3)[nH]c1=O (stereo not given) |  | inconclusive: 56.2 µM [inhibitor, partial curve, poor fit]
41 | CCN(CC)CCCn1c2c(c(SCC(=O)Nc3ccc(OC(F)(F)F)cc3)nc1=O)CCC2 |  | inconclusive: 89.1 µM [inhibitor, partial curve, poor fit]
42 | Cc1ccc2c(c1)c(=O)c1ccccc1n2CCCC(=O)Nc1ccc(C)c(C)c1 |  | inactive
43 | CC(C)c1ccc(NC(=S)Nc2ccc3cn[nH]c3c2)cc1 |  | active: 79.4 µM
44 | CCCCn1c(N)c(N(CCOC)C(=O)CN2c3ccccc3CC2C)c(=O)[nH]c1=O (stereo not given) |  | active: 20 µM
45 | CCCCn1c(-c2ccc(F)c(F)c2)nc2cc3[nH]c(=O)c(C(C)C)nc3cc21 |  | inactive
46 | COc1ccc(Cn2c(=O)c3ccccc3n3c(-c4ccc(C)cc4)nnc23)cc1 |  | inactive
47 | O=C(NCCN1CCOCC1)C(=O)NCC1CCCO1 (stereo not given) |  | inactive
48 | [S-]C(=Nc1ccc(Cl)cc1)N[n+]1ccccc1 |  | inconclusive: 3.16 µM [inhibitor, full curve, poor fit]

Row | Structure (SMILES) | activity, negative = inhibition | Potency
49 | CCN(c1ccccc1)S(=O)(=O)c1ccc(Cl)c(C(=O)NCc2ccco2)c1 | inactive: -37.4% [at 2.33 µM] | 
50 | CC(=O)c1cccc(CN2CCCC(C(=O)Nc3cccc(-n4cccn4)c3)C2)c1 (stereo not given) |  | inconclusive: 89.1 µM [inhibitor, single point]
51 | CCC(C(=O)OCn1nnc2ccccc2c1=O)c1ccccc1 (stereo not given) |  | inconclusive: 89.1 µM [inhibitor, single point]
52 | CCc1cccc(NC(=O)Cn2nc(C)c3sc4ccccc4c3c2=O)c1 |  | inconclusive: 39.8 µM [inhibitor, partial curve, poor fit]
53 | COc1ccc(Cn2c(C(=O)O)c(CNCc3ccc(C)o3)c3ccc(OC)cc32)cc1 |  | inactive
54 | CCOc1ccc2nc(Nc3nc(CSc4nnnn4-c4ccccc4)cc(=O)[nH]3)nc(C)c2c1 |  | inconclusive: 89.1 µM [inhibitor, single point]
55 | CC1CCN(S(=O)(=O)c2ccc3c(c2)c(=O)c(C(=O)NCc2cccs2)cn3C)CC1 |  | inactive
56 | CCOC(=O)C1(Cc2ccccc2)CCCN(CCO)C1 (stereo not given) | inactive: -11.6% [at 0.501 µM] | 
57 | Cc1ccc(C)c(-c2nnc(NC(=O)CS(=O)(=O)c3ccccc3)o2)c1 |  | inconclusive: 89.1 µM [inhibitor, single point]
58 | C=CCNC(=O)COc1cc(C)cc(C)c1C |  | inconclusive: 50.1 µM [inhibitor, partial curve, poor fit]
59 | Cc1ccc2[nH]c(C)c(CC(=O)O)c2c1 |  | inconclusive: 20 µM [inhibitor, partial curve, poor fit]
60 | CCOc1ccccc1NC(=O)C1CCCN(S(=O)(=O)c2cccc3cccnc23)C1 (stereo not given) |  | inconclusive: 39.8 µM [inhibitor, single point]
61 | CCCCCC(=O)N/N=C/c1ccc(N(C)C)cc1 |  | inconclusive: 20 µM [inhibitor, single point]
62 | CCc1cc(Br)ccc1N1C(=O)C2CC=CCC2C1=O (stereo not given) |  | inconclusive: 35.5 µM [inhibitor, single point]
63 | Cc1ccc(S(=O)(=O)NCC(=O)OCC(=O)c2cc(C)n(-c3ccccc3)c2C)cc1 |  | inconclusive: 79.4 µM [inhibitor, single point]
64 | Cc1nn(Cc2ccc(Cl)cc2)c(C)c1N |  | inconclusive: 39.8 µM [inhibitor, single point]
65 | COc1ccc(N2CCN(C(=O)c3cc4cc(Cl)ccc4[nH]3)CC2)cc1 |  | inconclusive: 79.4 µM [inhibitor, single point]
66 | O=C(NC1CC1)c1cc(OCC(F)(F)F)ccc1OCC(F)(F)F |  | inactive
67 | CCC(=O)N1c2ccc(S(=O)(=O)CCC(=O)N3CCN(c4ccc(F)cc4)CC3)cc2CC1C (stereo not given) |  | inconclusive: 12.6 µM [inhibitor, partial curve]
68 | O=[N+]([O-])c1cccc(/C=N/N=C\c2ccccc2)c1 |  | inactive
69 | O=C(CC1OC(=O)c2ccccc21)Nc1cc(S(=O)(=O)N2CCOCC2)ccc1OCC(F)(F)F (stereo not given) |  | active: 12.6 µM
70 | CC(=O)OCCCNc1cc(Sc2nc3ccccc3s2)c2nonc2c1[N+](=O)[O-] | inconclusive: -118% [inhibitor] [at 12.7 µM] | 
